From PubChem BioAssay AID1159614 (National Center for Advancing Translational Sciences (NCATS), 2016)
About 65 (0.1%) of roughly 45,000 compounds were called active. Calls follow the shape of the dose curve; as a rule, active = well fitted activation curve with a large enough effect; inconclusive = small, poorly fitted or top-dose-only effect; inactive = no such curve, though single readings can be large or run the other way. The list shows a part of the results.

molecular target: Galactocerebrosidase (Homo sapiens) (UniProt P54803); assay: A Novel Cell-Based Assay to Identify Small Molecules for B -Galactocerebrosidase; details: 145M-Twi-hGALC-G270D cells (Twitcher mouse brain line with human GALC G270D), HMU-beta-Gal fluorescence, 48 h; series mostly up to 57.5 µM; activation: at the top concentration; also: 0% is about no effect; nearly all actives have a fitted effect of over 65% in size
Chain of UniProt P54803 (P54803 whole entry, looked up): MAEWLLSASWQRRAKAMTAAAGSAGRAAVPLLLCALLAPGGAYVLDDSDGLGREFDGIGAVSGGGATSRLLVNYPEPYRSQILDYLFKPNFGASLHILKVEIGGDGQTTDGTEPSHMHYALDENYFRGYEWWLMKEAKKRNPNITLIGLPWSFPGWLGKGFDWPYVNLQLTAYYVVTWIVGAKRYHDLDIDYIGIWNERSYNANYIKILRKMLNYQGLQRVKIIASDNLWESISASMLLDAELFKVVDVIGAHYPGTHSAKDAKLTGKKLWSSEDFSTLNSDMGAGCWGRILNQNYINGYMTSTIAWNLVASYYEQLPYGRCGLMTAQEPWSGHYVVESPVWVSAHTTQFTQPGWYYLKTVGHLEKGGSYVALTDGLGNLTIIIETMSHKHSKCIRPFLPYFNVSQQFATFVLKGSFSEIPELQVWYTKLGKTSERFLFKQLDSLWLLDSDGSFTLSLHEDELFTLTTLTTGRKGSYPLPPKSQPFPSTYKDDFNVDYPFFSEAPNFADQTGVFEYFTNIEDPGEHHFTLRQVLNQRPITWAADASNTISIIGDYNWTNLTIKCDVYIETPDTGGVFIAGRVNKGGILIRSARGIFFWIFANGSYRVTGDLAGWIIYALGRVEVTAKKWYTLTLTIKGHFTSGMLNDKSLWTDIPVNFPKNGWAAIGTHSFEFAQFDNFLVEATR
In short: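 Mutant human GALC (G270D), stably expressed in a Twitcher mouse brain cell line lacking endogenous GALC, is measured in live-treated cells via 6-hexadecanoylamino-4-methylumbelliferyl-β-galactoside hydrolysis (0.1 mM final, pH 5.2) with fluorescent detection.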

activation, inactive:
COc1ccc(CCNC(=O)c2cc(C)nc3c2c(C)nn3-c2ccccc2)cc1OC -20.5%, CCCS(=O)(=O)N1CC(=O)N(c2ccccc2F)C(C)(C(=O)NC2CCCCCC2)C1 (configuration not stated) -10.1%, CCC1CCCCN1CCCNC(=O)c1ccc2c(c1)N(Cc1ccccc1F)C(=O)c1ccccc1S2(=O)=O (configuration not stated) -16.7%, O=C(Nc1ccc([N+](=O)[O-])cc1)Nc1ccc([N+](=O)[O-])cc1 -20.2%, CC(C(=O)NCc1ccccc1)N1Cc2ccccc2C1=O (configuration not stated) -8.14%, CC1CCN(C(=O)CSc2nc(-c3ccc(C(C)C)cc3)no2)CC1 0.391%, COc1ccccc1N1CCN(C(=O)CSc2nc3ccccc3nc2Cc2ccc(F)cc2)CC1 -2.03%, COc1ccccc1Cn1c(CNS(=O)(=O)c2ccc3c(c2)CCCC3)nc2cccnc21 -6.92%, Cc1csc2nc(COc3ccc(NC(=O)COc4ccccc4F)cc3)cc(=O)n12 -3.41%, CC(C)(C)C1CCc2c(sc(NC(=O)Cn3nnc(-c4cccc(C(F)(F)F)c4)n3)c2C#N)C1 (configuration not stated) -14%, CCCCCOC(=O)CSc1nc2sc3c(c2c(=O)n1Cc1ccccc1)CC(C)(C)OC3 -6.35%, Cn1c(CNC(=O)CSc2n[nH]c(-c3ccccc3)n2)nc2ccccc21 -4.02%, O=C(Cn1c(=O)n(-c2ccc(Cl)cc2)c(=O)c2c3c(sc21)CCC3)c1ccc(F)cc1 -14.9%, CCN1CCSc2ccc(C(=O)NCc3cccc(F)c3)cc21 -10.8%, CCCCc1nn2c(=O)cc(COC(=O)c3ccc(NC(=O)c4cccs4)cc3)nc2s1 -7.64%, Fc1ccc(Nc2nc3nonc3nc2Nc2cccc(C(F)(F)F)c2)cc1 -21.9%, O=[N+]([O-])c1cc(-c2nc(-c3ccccc3)no2)ccc1N1CCCC1 2.43%, Cc1ccccc1NCc1cccn1-c1nnc(N2CCOCC2)s1 -22.2%, NCCCC(N)(C(=O)O)C(F)F (configuration not stated) -15.7%, CC(C)OCCCn1c(SCC(=O)Nc2ccc(F)cc2)nc2c(sc3ccccc32)c1=O -7.37%, CCC(Sc1nc2c(sc3ccccc32)c(=O)n1CCCC(=O)NC1CCCC1)C(=O)Nc1cccc(OC)c1 (configuration not stated) -8.61%, CC(C)CC(=O)N1CC(=O)Nc2ccc(F)cc2C1c1ccccc1 (configuration not stated) -9.66%, Cc1ccc(NC(=O)CSc2nnc3[nH]c(=O)cc(C)n23)cc1Cl -7.3%, COc1cccc(CNC(=O)CCc2nnc3n(CC(C)C)c(=O)c4ccccc4n23)c1 -4.59%, Cc1sc2c(c1C)c(=O)n(-c1ccccc1)c(=O)n2CC(=O)c1ccc(Cl)cc1 4.12%, CCC(=O)N1c2ccccc2CC1C(=O)NCCN1CCN(c2cccc(C)c2C)CC1 (configuration not stated) -2.08%, Cc1ccc(-c2nc3ccccc3o2)cc1NC(=O)c1cccc2c(Cl)cccc12 -29.8%, Cc1nc2sccn2c(=O)c1S(=O)(=O)Nc1ccc(N2CCN(S(C)(=O)=O)CC2)cc1 -17.2%, Cc1cccc(Nc2nc(-c3ccccc3)c3cc(C)ccc3n2)c1 1.22%, O=C(CSc1nc(-c2ccccc2)[nH]c1-c1ccccc1)Nc1ccc2c(c1)OCO2 -16.2%, CCCc1ccc(OC(=O)CSc2nnc(-c3cccs3)o2)cc1 -13.7%, CCS(=O)(=O)N1CCc2cc(C(=O)Nc3cccc(C)c3C)ccc21 -43.9%, CCOc1ccc(-c2cc3c(=O)n(CC(=O)NCc4ccc(OC)cc4)ccn3n2)cc1 -15.5%, CSc1ccc(CCNC(=O)CCn2c(=O)c3cccn3c3cccnc32)cc1 0.833%, Cc1ccc(OCCSc2nc3ccc(NC(=O)c4ccc5c(c4)OCO5)cc3s2)cc1 -10.8%, CCOC(=O)C1CCCN(C(=O)c2c(C)nn(-c3ccc(F)cc3)c2-n2cccc2)C1 (configuration not stated) -4.68%, COc1ccc(NC(=O)c2cc3c(=O)n(C)c4ccccc4c3s2)cc1Cl -4.76%, O=C(Nc1ccc(F)cc1)C1CCN(c2nc3ccccc3n3cccc23)CC1 -16.2%, Cc1nc(-n2nc(C)c(Cc3ccccc3Cl)c2C)sc1C(=O)N1CCC(C)CC1 -16.2%, CCOC(=O)C(CC)Sc1ncnc2sc3c(c12)CCCC3 (configuration not stated) -17.9%, O=C(CCn1cccn1)NCc1ccc(Cl)cc1 -12.6%, O=C(NC1(C(F)(F)F)NC(=O)N(CCc2ccccc2)C1=O)c1ccccc1Cl (configuration not stated) -16.3%, Cc1cccc(NC(=O)CSc2nnc(N)s2)c1 -17%, Cc1cccc(-n2ncc(C(=O)N3CCc4ccccc4C3)c2C2CCN(C(=O)OC(C)(C)C)CC2)c1 15.6%, Cc1oc2ccc(O)c(CN3CCCCCC3)c2c1C(=O)Nc1cccc(Cl)c1C -18.2%, O=C(NCCc1ccc(Cl)cc1)C(=O)NCC(c1ccco1)S(=O)(=O)c1cccs1 (configuration not stated) -4.93%, COC(=O)c1nnn(CC(=O)Nc2cc(F)ccc2F)c1C(=O)OC -11.2%, CSc1ncc2c(n1)-c1ccccc1N(Cc1ccc(F)cc1)S2(=O)=O -5.85%, Cc1c(-c2nsc(NC(=O)c3cccs3)n2)nnn1-c1ccc(Cl)cc1 -10%, N#Cc1c[nH]n2c(NC3CCCCC3)c(-c3ccccc3F)nc12 -16.2%, Cc1nn2c(=O)cc(COC(=O)c3cccc(NC(=O)COc4ccc(C)c(C)c4)c3)nc2s1 -10.9%, CCN(CC)CCCNC(=O)c1ccc2c(c1)N(Cc1c(F)cccc1Cl)C(=O)c1ccccc1S2 -1.55%, O=C(C1CCN(S(=O)(=O)c2cccs2)CC1)N1CCN(c2cccc(Cl)c2)CC1 -12.2%, CCSc1ncc(Cl)c(C(=O)N(Cc2ccccc2Cl)C2CCS(=O)(=O)C2)n1 (configuration not stated) -15.6%, Cc1ccc(CN2C(=O)c3ccccc3Sc3ccc(C(=O)NCc4ccco4)cc32)cc1 1.59%, COc1ccc(C(=O)NCC(c2ccc3c(c2)OCO3)N2CCOCC2)cc1 (configuration not stated) -1.7%, COc1ccc(C2=NN(S(C)(=O)=O)C(c3cn(-c4ccccc4)nc3-c3cccs3)C2)cc1 (configuration not stated) 7.25%, Cc1ccc(S(=O)(=O)N(CC(O)Cn2c3ccccc3c3ccccc32)c2cccc(C(=O)N(C)C)c2)cc1 (configuration not stated) -47%, C#CCN1C(=O)C(O)(CC(=O)c2ccc(OC)c(OC)c2)c2cc(Br)ccc21 (configuration not stated) -13.9%, Cc1ccc(-c2nc3ccccn3c2Nc2ccc3c(c2)OCCO3)s1 -3.43%, CN(C)CCOC(c1ccc(Cl)cc1)c1ccccn1 (configuration not stated) -3.99%, Cc1cc(C)cc(NC(=O)Cn2c(=O)n(C(C)C)c(=O)c3oc4ccccc4c32)c1 -9.7%, O=C(Cc1ccc(NC(=O)N2CCSc3ncccc32)cc1)NCc1ccccc1 -0.766%, Cc1ccc(Oc2nc3c(c(=O)n(Cc4ccccc4)c(=O)n3C)n2C)cc1C -24.3%, CCCn1c(=N)c(C(=O)NCc2cccnc2)cc2c(=O)n3cccc(C)c3nc21 -8.37%, COc1cccc(-c2ccnc3c(-c4ccc(F)cc4)c(C)nn23)c1 -2.93%, Cc1oc2ncnc(N3CCOCC3)c2c1C(=O)N1CCN(c2cccc(C(F)(F)F)c2)CC1 2.96%, CCN(C(=O)C1CCC(CNS(=O)(=O)c2cccc3nsnc23)CC1)c1cccc(C)c1 (configuration not stated) -16.5%, CC1(C)CC(=O)c2cc(C(=O)Nc3ccc(Br)cc3)c(=O)[nH]c2C1 -11.2%, CCN(C(=O)C1CCC(CNS(=O)(=O)c2cccc3nsnc23)CC1)c1ccccc1 (configuration not stated) -8.46%, COc1ccc(NC(=O)C2=C(C)Nc3ncnn3C2c2ccc(C)o2)cc1 (configuration not stated) -18.5%, Cc1ccc(NC(=O)c2ccc(=O)n(CC(=O)Nc3c(C)cc(C)cc3C)n2)cc1 -9.21%, Cc1ccc(COc2ccc3oc(-c4ccccc4)c(C(=O)O)c3c2)cc1 -14%, COc1ccc(OCC(=O)N2CCN(C(=O)c3cc(OC)c(OC)c(OC)c3)CC2)cc1 -18%, COc1ccc(/C=C/C(=O)N2CCC(c3nc4ccccc4o3)CC2)cc1OC -8.91%, CCOc1ccccc1NC(=O)N(C)CCc1c(C)nn(CC)c1C -14.6%, CCOc1ccc(C2N3CC4(C(C)C)CN2CC(C(C)C)(C3)C4=O)cc1OC (configuration not stated) -15.7%, O=C(COc1ccccc1)NCC(c1cccs1)S(=O)(=O)c1ccc(Cl)cc1 (configuration not stated) -6.87%, CCN(C(=O)Cn1c(SCC(=O)Nc2ccc(OC)cc2)nc2ccccc21)c1cccc(C)c1 -10.1%, CC(C)(C)c1ccc(C(=O)NNc2ncnc3c2cnn3-c2ccccc2)cc1 -19%, O=C1CCc2ccc(OCCCCN3CCN(c4cccc(Cl)c4Cl)CC3)cc2N1 -13%, Cc1cc(C)n2c(Nc3ccccc3C)c(-c3cccs3)nc2n1 -12.8%, COc1cccc(C(=O)Nc2ccc(-n3nncc3-c3ccc(Br)cc3)cc2)c1OC -0.447%, COc1ccc(-n2nc(C(=O)Nc3ccc(Br)cc3C)c3c4ccccc4n(C)c3c2=O)cc1 -7.95%, COc1ccc(C(=O)N2CC(=O)Nc3ccc(C)cc3C2c2ccccc2)cc1OC (configuration not stated) -9.07%, CCOc1ccc(C2C=C(c3cccc(OC)c3)Nc3nnnn32)cc1 (configuration not stated) -1.99%, COc1ccc2nc3oc(C(=O)Nc4cccc(C(F)(F)F)c4)cc3cc2c1 11.8%, Cc1cc(C)cc(NS(=O)(=O)c2ccc3c(c2)OCC(C(=O)N2CCCC2)O3)c1 (configuration not stated) -12.2%, CCOc1ccc(NC(=O)CN(Cc2ccccc2)S(=O)(=O)c2ccc(Cl)cc2)cc1 2.53%, Cc1ccccc1CN1CCc2nc(N3CCN(c4ccccn4)CC3)ncc2C1 -11.5%, Cc1ccc2nc(-c3ccc(C)c(NC(=O)Cc4ccccc4)c3)oc2c1 -2.68%, Cc1cccc(Nc2nc(C)nc(N)c2S(=O)(=O)c2ccccc2)c1 5.7%, Cc1ccc(CNC(=O)CSc2c3c(nc4ccc(Cl)cc24)CCCC3)cc1 6.68%, Cc1c(C2=CCN(S(=O)(=O)c3ccc(Br)cc3)CC2)c2ccccc2n1CC(=O)N1CCCC1 -13.3%, CCOc1ccc(C2C(C(=O)Nc3ccc(OC)cc3)=C(C)Nc3nc(SCc4ccc(Cl)cc4)nn32)cc1 (configuration not stated) -6.01%, COc1ccc(N2CCN(CCCNC(=O)c3ccc4nc(CCc5ccccc5)oc4c3)CC2)cc1 -13.7%, COc1ccc(NC(=O)CSc2c3c(nc4ccc(Cl)cc24)CCCC3)cc1Cl -6.42%
